The values that follow come from patent US20080161289A1, “Fused Thiazole Derivatives Having Affinity for the Histamine H3 Receptor” (Glaxo Group Limited, priority 2005, published 2008).

Not every entry of the source has a single result; some have several. The other results are left out here. An entry can have further records. The values listed for one entry seem to repeat one measurement (runs, samples, wells or individuals). Records carry a tag for their origin. Letters count within one entry.

In this assay the target is T1, histamine H3 receptors (Homo sapiens, UniProt Q9Y5N1).
T1 construct: expressed in transfected cells; host or cells: CHO K1 cells carrying pSwitch, transfected with pGeneH3, induced with mifepristone; clone 3H3; membrane preparation
T1 sequence (Q9Y5N1 whole entry): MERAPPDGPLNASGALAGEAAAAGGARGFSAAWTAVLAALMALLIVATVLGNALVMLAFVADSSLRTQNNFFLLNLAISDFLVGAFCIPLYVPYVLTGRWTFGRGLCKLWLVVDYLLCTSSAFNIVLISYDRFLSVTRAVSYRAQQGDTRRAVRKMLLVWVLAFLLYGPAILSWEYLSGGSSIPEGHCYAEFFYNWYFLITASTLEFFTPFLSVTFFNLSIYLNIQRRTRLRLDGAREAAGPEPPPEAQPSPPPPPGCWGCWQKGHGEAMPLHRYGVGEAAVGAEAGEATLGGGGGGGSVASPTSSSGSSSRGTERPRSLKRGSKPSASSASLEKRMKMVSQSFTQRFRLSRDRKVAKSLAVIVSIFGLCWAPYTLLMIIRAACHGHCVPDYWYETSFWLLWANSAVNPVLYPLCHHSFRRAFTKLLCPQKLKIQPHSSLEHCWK
The assay can be described thus: Histamine H3 functional antagonist assay ([35S]-GTPγS SPA on membranes from H3 cells). The assay is classed as biochemical. As to conditions: hydrochloride salts tested; H3 functional antagonist assay using membrane prepared from cultured H3 cells; averages of a number of experiments; read-out: functional pKi (fpKi) (converted). The text has this:
A membrane preparation containing histamine H3 receptors may be prepared in accordance with the following procedures:
(i) Generation of Histamine H3 Cell Line
DNA encoding the human histamine H3 gene (Huvar, A. et al. (1999) Mol. Pharmacol. 55(6), 1101-1107) was cloned into a holding vector, pCDNA3.1 TOPO (InVitrogen) and its cDNA was isolated from this vector by restriction digestion of plasmid DNA with the enzymes BamHI and Not-1 and ligated into the inducible expression vector pGene (InVitrogen) digested with the same enzymes. The GeneSwitch™ system (a system where in transgene expression is switched off in the absence of an inducer and switched on in the presence of an inducer) was performed as described in U.S. Pat. Nos. 5,364,791; 5,874,534; and 5,935,934. […]
10-14 days post selection 10 nM Mifepristone (InVitrogen), was added to the culture medium to induce the expression of the receptor. […] Receptor bound antibody was detected by incubation of the cells for 60 minutes on ice with a goat anti rabbit antibody, conjugated with Alexa 488 fluorescence marker (Molecular Probes). Following two further washes with Sorting Medium, cells were filtered through a 50 μm Filcon™ (BD Biosciences) and then analysed on a FACS Vantage SE Flow Cytometer fitted with an Automatic Cell Deposition Unit. […]
(In general: GTPγS is a poorly hydrolysed GTP analogue; its binding reports G protein activation.)

Consider `c1cc(N2CCOCC2)ccc1-c1nc2c(s1)CCN(C1CCC1)CC2` [Example E110, 6-Cyclobutyl-2-[4-(4-morpholinyl)phenyl]-5,6,7,8-tetrahydro-4H-[1,3]thiazolo[4,5-d]azepine], for which the Ki was < 1.26 nM [passage A] and > 15.5 nM [passage B].
